The record followed here is PubChem BioAssay AID1919009 (Molecular Pharmacology Branch, DTP, NCI, 2023).

A number of entries come with more than one value. They are shown here; other results are not. An entry can have further records. The records of an entry repeat one measurement across runs, samples, wells, individuals or studies. Brackets with × stand for listed records that agree.

This experiment deals with K24384-001-R-PDC complex spheroid growth. The experiment in a line: Anticancer human tumor K24384-001-R-PDC patient-derived pancreatic adenocarcinoma cell line growth inhibition [AhR]. To be noted: stronger effect = lower value. From the text:
Multicellular complex tumor spheroid response to aryl hydrocarbon receptor antagonists in combination with a variety of drugs and investigational agents in selected tumor cell lines
The current study was undertaken to assess response to aryl hydrocarbon receptor antagonists in combination with standard-of-care drugs and investigational agents in solid tumor complex spheroid models. Complex spheroids include a stromal component modeled by human endothelial cells (HUVEC) and fibroblasts modeled by human mesenchymal stem cells (MSCs). The concentration ranges selected for each drug and investigational agent were based upon clinically achievable concentrations if the clinical Cmax of the agent was known.
Compounds. The drugs and investigational agents: BAY 2416964 (NSC825713), GNF351 (NSC835774), CH-223191 (NSC835775), CPI-455 (NSC825282), aza-TdCyd (NSC777586), decitabine (NSC127716), belinostat (NSC758774), entinostat (NSC756642), pevonedistat (NSC761192), tazemetostat (NSC777109), talazoparib (NSC765396), olaparib (NSC753686), selinexor (NSC780203), nedisertib (M3814, NSC802822), bortezomib (NSC756655), venetoclax (NSC766270), doxorubicin (NSC123127), elimusertib (BAY189344, NSC800525), ceralasertib (AZD6738, NSC777638), TAK-243 (NSC785004), alisertib (NSC759677), etoposide (NSC141540), topotecan (NSC609699), eribulin (NSC707389), gemcitabine (NSC613327), carboplatin (NSC241240), cisplatin (NSC119875), and SN-38 (NSC673596) were obtained from the National Cancer Institute (NCI) Developmental Therapeutics Program Chemical Repository (32). The FDA-approved anticancer drug set is available from the Developmental Therapeutics Program at https://dtp.cancer.gov/organization/dscb/obtaining/available plates.htm. […] The stock solutions were prepared in dimethyl sulfoxide (DMSO, Sigma-Aldrich, St. Louis, MO, cat. D2650), except for the platinum compounds which were prepared in saline (Quality Biological, Gaithersburg, MD, cat. 114-055-101), at 800-fold the tested concentration and stored at -70 degrees C prior to their use. All drugs and investigational agents were tested over a range starting from a high concentration at or near the clinical Cmax and decreasing in half-log increments. If the clinical Cmax for an agent had not been determined, the highest concentration tested was 10 microM (Table 1).
Cell Culture. All cells were maintained in an incubator at 37 degrees C and 5% CO2 with 95% humidity. The PDC lines were cultured according to standard operating procedures established by the NCI PDMR (https://pdmr.cancer.gov). Briefly, all PDCs were thawed and cultured in Matrigel-coated flasks prepared with a working solution of 1X Ham's F-12 nutrient mix, without supplementation (Invitrogen, Waltham, MA, cat. 11765054), 100 U/mL penicillin-streptomycin (Invitrogen, cat. 15140122), and 2.5% Matrigel (Corning Inc., Corning, NY, cat. 354248) for the first three passages. All PDCs were cultured in complete DMEM/F-12 media containing advanced DMEM/F-12 (Invitrogen, cat. 12634028), 4.9% defined fetal bovine serum, heat inactivated (HyClone Laboratories Inc., Logan, UT, cat. SH30070.03HI), 389 ng/mL hydrocortisone (Sigma-Aldrich, cat. H4001), 9.7 ng/mL human EGF recombinant protein (Invitrogen, cat. PHG0313), 23.4 microg/mL adenine (Sigma-Aldrich, cat. A2786), 97.3 U/mL penicillin-streptomycin (Invitrogen, cat. 15140122), 1.9 mM L-glutamine (Invitrogen, cat. 25030081), and 9.7 microM Y-27632 dihydrochloride (Tocris Bioscience, Bristol, United Kingdom, cat. 1254). The PDCs were cultured in complete DMEM/F12 media without 10 microM Y-27632 dihydrochloride for at least two passages prior to the screen. The established cell lines NCI-H1341 and […] were cultured in DMEM/F-12, HEPES (Invitrogen, cat. 11330032), 5% defined fetal bovine serum (HyClone Laboratories Inc., cat. SH30070.03), ITS premix universal culture supplement [insulin (5 microg/mL), transferrin (5 microg/mL), and selenious acid (5 ng/mL)] […]
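Note: percent of DMSO vehicle-treated spheroid viability set as 100%.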

Take `Cc1ccccc1N=Nc1ccc(NC(=O)c2ccnn2C)c(C)c1`: the viability, T/C runs as follows: (compound alone 0.1 µM) 102, 103, 87.8, 86.9, 95, 101 (2×), 94.3, 92.5, 104, 80.9, 108, 86.4, 95.9, 84.6, 88.7, 106, 86.5, 91.7%; (compound alone 0.316 µM) 126, 102, 95.9, 89.2, 82.3, 85.1, 103 (2×), 100, 81.3, 75.4, 111, 108, 85.6, 90, 101, 116, 97.7, 87.1, 87.2%; (compound alone 1 µM) 110, 92, 98.4, 92.7, 99.7, 109 (2×), 85.7, 103, 87, 93.6, 94.8, 88.4, 97.8, 116, 96.2, 91, 88.8, 79.8, 93.3%; (compound alone 3.16 µM) 103 (2×), 86.5, 90.8, 89.9, 67.4, 100, 88.1, 78.6, 66.6, 86.2, 110, 87.5, 75.5, 73.5, 114, 88.4, 77.3, 63.5, 71.7%; (compound alone 10 µM) 127, 76.7, 110, 96.2, 71, 119, 114, 79.9, 79.3, 80, 118, 99.7, 76, 87.5, 111, 125, 80.7, 91.2, 78.8, 86.9, 123%.
As for `CC(CO)NC(=O)c1cc(-c2ccc(Cl)cc2)nn(-c2cnn(C)c2)c1=O` (centres undefined), the viability, T/C is, setting by setting: (compound alone 0.1 µM) 98.7, 105, 97.9, 103 (2×), 93.7, 90.6, 90.2, 84.8, 108, 93.3, 93.6, 88.4, 85.5, 83.1, 83.2, 93.8, 71.4, 94.8, 89.4%; (compound alone 0.316 µM) 95.2, 106 (2×), 98.8, 93.8, 96.8, 84.4, 84, 85.3, 72, 103, 98, 94, 81.1, 117, 89.3, 96.2, 108, 83.6, 111, 92.8%; (compound alone 1 µM) 75.6, 98, 85.2, 93.7, 93.2, 88.9, 82.5, 79.3, 78, 95 (2×), 98.9, 94.8, 106, 73.5, 96.5, 99.2, 110, 115, 82.8, 79.1%; (compound alone 3.16 µM) 71.5, 83.6, 95.1, 85.3, 78.5, 68.2, 82.9, 73.7, 94.9, 105, 96.6, 97.6, 82.8, 115, 116, 89.5, 111, 75, 102%; (compound alone 10 µM) 73.9, 61.1, 94.4, 110, 74.4, 58.2, 74.9, 74.8, 90.6, 98.1, 83, 103 (2×), 62.3, 98.7, 98.4, 92.2, 72.9, 91.8%.
On to `Cc1cncc(-c2nc(NCCc3c[nH]c4ccccc34)c3ncn(C(C)C)c3n2)c1`, for which the viability, T/C is, setting by setting: (compound alone 0.1 µM) 99.4, 85.1, 96.9, 103 (2×), 106, 93.8, 97, 100, 77.7, 110, 104, 94, 86.3, 96.2, 122, 107, 87, 93.7, 92.3%; (compound alone 0.316 µM) 104 (2×), 86.6, 79, 82.2, 82.9, 115, 122, 90.6, 96.2, 118, 101, 108, 76.8, 114, 127, 124, 102, 94.8, 99.4%; (compound alone 1 µM) 87, 93.2, 106, 91.7, 147, 109, 116, 110, 98.4, 108 (2×), 125, 99, 99.2, 94.8, 145, 135, 104, 95, 102%; (compound alone 3.16 µM) 80.6, 77.9, 74.9, 75.3, 137, 71.5, 112, 108, 90.3, 86.6, 117, 88.5, 113, 79.4, 107, 96.7, 33.5, 69.5, 89.8, 68.6%.
